Results are given in words; binding and its absence hold for the method and conditions named. For some of these results: In cells and extracts the contact can be indirect. Some binding calls cover weakened binding; strength is not graded here. For some of these results: Where a sequence is shown, tags or fusion partners need not be part of it.
Experiments:
[1] = biological target: T1, Myc-tagged COMMD8 (mouse) (mouse) (UniProt Q9CZG3); test: co-IP; tagged COMMD8, COMMD3 and their truncation mutants in transduced 2PK-3 cells; digitonin lysis buffer
T1 sequence: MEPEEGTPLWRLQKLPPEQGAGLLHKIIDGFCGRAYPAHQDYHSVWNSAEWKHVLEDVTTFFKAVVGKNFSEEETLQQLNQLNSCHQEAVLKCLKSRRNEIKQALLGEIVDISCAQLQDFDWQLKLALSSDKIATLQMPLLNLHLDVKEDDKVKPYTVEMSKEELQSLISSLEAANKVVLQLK

The chains behind the UniProt entries cited, without tags or fusion partners. Where a name states a change or a piece, a line headed by the entry shows the natural chain unless it says otherwise. A line that says so, or that is headed by a name, gives the form on record, which may keep a tag or linker. Residues count along the entry.
UniProt Q63829: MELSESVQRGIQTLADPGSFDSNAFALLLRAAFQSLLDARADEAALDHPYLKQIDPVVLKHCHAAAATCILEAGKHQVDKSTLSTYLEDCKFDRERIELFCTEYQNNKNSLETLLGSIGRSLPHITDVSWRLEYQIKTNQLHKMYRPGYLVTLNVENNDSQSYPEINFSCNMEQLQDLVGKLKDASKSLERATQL
UniProt P18762: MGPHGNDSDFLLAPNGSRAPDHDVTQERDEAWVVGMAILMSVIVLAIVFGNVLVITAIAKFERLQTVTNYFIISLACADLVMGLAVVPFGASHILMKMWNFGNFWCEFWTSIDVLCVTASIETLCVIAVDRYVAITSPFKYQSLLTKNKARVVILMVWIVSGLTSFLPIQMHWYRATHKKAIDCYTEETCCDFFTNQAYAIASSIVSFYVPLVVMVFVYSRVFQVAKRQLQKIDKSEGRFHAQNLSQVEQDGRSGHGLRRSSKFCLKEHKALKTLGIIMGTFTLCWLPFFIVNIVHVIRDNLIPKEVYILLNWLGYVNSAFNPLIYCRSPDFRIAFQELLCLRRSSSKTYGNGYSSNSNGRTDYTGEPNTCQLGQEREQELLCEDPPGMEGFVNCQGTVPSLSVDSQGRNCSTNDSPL
UniProt P70658: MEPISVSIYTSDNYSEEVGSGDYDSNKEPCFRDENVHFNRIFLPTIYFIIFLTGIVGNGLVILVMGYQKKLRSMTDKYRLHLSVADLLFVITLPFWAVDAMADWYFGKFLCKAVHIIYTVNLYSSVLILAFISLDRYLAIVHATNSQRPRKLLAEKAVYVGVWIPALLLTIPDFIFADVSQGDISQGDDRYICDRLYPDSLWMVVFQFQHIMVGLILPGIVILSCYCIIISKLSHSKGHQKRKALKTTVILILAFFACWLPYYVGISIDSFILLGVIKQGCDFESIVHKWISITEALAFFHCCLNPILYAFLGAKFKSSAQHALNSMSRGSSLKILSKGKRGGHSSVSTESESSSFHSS
CXCR4 S353-355A, Flag-tagged, C-terminally fused via a TEV protease cleavage site to tTA (P70658, form named): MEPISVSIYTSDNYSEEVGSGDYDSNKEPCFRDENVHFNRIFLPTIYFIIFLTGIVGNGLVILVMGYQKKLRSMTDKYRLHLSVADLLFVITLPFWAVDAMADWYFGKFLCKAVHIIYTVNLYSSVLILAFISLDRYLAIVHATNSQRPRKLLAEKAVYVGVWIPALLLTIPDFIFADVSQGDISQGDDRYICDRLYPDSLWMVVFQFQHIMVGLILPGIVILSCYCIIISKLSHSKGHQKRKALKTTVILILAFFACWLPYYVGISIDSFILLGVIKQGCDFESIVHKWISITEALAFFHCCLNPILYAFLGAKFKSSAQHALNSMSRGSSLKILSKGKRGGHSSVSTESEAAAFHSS
UniProt O08530: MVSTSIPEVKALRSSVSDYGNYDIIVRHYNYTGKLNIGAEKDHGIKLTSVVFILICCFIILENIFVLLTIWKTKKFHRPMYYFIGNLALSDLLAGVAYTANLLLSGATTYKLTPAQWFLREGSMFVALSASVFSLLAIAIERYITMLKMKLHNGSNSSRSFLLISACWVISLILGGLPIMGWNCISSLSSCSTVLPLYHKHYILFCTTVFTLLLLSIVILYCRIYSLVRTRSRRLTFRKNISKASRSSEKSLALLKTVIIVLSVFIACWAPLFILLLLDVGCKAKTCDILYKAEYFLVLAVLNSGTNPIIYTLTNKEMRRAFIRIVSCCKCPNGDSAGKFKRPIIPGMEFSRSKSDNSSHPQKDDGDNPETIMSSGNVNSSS
UniProt P47774, residues 25-378: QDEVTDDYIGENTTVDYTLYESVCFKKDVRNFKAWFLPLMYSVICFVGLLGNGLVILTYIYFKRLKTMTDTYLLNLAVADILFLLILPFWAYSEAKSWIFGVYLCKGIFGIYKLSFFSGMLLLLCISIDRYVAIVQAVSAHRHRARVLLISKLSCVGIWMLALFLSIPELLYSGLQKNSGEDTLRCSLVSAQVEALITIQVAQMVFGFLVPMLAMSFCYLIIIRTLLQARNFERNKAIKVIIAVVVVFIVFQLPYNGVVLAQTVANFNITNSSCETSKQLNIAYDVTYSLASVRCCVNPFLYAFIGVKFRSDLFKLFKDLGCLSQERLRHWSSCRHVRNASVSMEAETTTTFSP
UniProt Q04683: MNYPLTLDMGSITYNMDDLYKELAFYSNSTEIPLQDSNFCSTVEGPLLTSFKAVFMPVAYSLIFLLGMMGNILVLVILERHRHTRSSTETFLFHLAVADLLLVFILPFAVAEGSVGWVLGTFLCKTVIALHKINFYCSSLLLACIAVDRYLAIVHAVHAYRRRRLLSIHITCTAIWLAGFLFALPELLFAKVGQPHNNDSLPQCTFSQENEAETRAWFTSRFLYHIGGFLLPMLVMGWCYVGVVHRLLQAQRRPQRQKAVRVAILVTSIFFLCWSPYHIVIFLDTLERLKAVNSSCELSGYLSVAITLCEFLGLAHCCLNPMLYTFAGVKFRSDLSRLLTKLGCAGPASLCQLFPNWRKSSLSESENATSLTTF
UniProt Q3U6B2: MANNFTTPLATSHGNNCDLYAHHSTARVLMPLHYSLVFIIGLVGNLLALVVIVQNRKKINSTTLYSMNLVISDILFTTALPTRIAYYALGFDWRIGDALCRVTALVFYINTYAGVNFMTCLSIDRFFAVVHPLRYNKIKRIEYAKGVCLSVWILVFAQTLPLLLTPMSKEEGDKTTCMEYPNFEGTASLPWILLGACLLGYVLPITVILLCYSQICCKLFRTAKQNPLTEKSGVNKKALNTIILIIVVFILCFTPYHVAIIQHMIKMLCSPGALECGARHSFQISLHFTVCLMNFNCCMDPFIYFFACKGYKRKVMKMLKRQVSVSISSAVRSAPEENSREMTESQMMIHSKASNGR
UniProt Q99MK8: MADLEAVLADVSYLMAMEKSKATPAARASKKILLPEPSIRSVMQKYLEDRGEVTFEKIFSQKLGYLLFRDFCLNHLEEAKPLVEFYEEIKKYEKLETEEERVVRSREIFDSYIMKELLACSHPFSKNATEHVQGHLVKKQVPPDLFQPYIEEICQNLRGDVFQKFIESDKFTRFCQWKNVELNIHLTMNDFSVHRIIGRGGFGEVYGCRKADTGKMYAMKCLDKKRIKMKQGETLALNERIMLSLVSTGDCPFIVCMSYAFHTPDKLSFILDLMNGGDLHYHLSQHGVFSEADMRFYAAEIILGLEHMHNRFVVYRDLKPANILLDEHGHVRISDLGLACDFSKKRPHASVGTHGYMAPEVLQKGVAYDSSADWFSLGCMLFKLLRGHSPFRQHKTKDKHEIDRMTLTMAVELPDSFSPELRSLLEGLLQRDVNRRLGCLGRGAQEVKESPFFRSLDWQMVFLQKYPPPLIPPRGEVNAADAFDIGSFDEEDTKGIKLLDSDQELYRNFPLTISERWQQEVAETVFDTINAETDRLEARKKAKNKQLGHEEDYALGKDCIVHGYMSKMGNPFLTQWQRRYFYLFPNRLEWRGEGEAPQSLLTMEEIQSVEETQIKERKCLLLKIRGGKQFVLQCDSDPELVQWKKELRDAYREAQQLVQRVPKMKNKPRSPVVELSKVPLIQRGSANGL
UniProt O70293: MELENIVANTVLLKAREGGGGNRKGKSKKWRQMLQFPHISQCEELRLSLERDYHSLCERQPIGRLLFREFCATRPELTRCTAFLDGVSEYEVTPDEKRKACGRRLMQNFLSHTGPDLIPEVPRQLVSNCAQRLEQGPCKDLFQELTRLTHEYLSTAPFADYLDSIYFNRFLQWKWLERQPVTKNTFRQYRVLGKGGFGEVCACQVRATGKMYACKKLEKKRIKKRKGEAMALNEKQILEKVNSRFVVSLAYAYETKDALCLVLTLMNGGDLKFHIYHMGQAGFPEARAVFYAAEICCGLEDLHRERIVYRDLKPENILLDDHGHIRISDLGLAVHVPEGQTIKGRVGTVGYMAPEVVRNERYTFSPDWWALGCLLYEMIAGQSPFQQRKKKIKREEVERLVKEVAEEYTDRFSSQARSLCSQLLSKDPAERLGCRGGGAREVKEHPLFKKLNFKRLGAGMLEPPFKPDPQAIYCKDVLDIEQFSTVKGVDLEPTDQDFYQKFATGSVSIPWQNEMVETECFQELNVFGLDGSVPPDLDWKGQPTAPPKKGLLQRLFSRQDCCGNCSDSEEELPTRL
UniProt Q91YI4: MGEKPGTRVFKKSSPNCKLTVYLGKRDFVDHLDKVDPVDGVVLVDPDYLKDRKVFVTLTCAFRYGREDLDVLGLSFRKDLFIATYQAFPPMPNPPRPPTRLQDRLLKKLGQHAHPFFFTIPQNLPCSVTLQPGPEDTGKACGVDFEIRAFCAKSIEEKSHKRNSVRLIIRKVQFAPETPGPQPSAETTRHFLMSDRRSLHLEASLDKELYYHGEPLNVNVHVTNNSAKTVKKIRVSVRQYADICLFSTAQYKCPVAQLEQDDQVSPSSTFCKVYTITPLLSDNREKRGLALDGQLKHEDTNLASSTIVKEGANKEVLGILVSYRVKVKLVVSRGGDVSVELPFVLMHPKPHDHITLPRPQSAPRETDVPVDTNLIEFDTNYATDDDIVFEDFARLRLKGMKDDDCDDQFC

[2] = biological target: T2, COMMD8, endogenous, mouse (mouse (endogenous in spleen cells and primary B cells)) (UniProt Q9CZG3); test: co-IP; endogenous proteins in mouse spleen cells; digitonin lysis buffer (1% digitonin, 0.125% NP-40, 150 mM NaCl, 10 mM Tris-HCl, pH 7.2)
T2 sequence: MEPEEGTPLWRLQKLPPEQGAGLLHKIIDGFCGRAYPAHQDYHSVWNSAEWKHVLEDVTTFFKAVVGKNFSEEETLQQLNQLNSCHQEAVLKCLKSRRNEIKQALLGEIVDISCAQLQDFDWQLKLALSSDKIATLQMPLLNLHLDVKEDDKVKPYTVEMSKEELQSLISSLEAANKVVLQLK

[3] = biological target: COMMD3 with a Myc or HA tag (mouse) (mouse) (UniProt Q63829); test: co-IP; transduced 2PK-3 cells, 30 min in RPMI with 0.5% fatty acid-free BSA, then stimulated with the receptor's ligand (CXCL12, CXCL13, CCL19, 7α,25-HC, S1P or clenbuterol); digitonin lysis buffer; also in GRK6-deficient cells
[4] = biological target: T1, Myc-tagged COMMD8 (mouse) (mouse); test: as above
[5] = biological target: Flag-tagged β2AR (mouse) (mouse) (UniProt P18762); test: co-IP; 2PK-3 cells (vector control, sgCommd8 or sgCommd3), 30 min or 2 h in HBSS with 10 mM Hepes, then CXCL12 (100 ng/ml) or isoproterenol (1 µM); digitonin lysis buffer
[6] = biological target: Flag-tagged CXCR4 (mouse) (mouse) (UniProt P70658); test: as above
[7] = biological target: Flag-tagged S1PR1 (mouse) (mouse) (UniProt O08530); test: co-IP; transduced 2PK-3 cells, 30 min in RPMI with 0.5% fatty acid-free BSA, then stimulated with the receptor's ligand (CXCL12, CXCL13, CCL19, 7α,25-HC, S1P or clenbuterol); digitonin lysis buffer; also in GRK6-deficient cells
[8] = biological target: Flag-tagged CCR7 (mouse) (mouse) (UniProt P47774); test: as above
[9] = biological target: Flag-tagged CXCR5 (mouse) (mouse) (UniProt Q04683); test: as above
[10] = biological target: Flag-tagged EBI2 (mouse) (mouse) (UniProt Q3U6B2); test: as above
[11] = biological target: Flag-tagged CXCR4 (mouse) (mouse) (UniProt P70658); test: as above
[12] = biological target: Flag-tagged mouse CXCR4 C-terminally fused via a TEV protease cleavage site to tTA (mouse) (UniProt P70658); test: Tango assay (TEV protease cleavage releases tTA, luciferase reporter); HTL cells transfected with GPCR-TEV cleavage site-tTA and COMMD8-TEV protease; stimulated with CXCL12 (10 ng/ml) or isoproterenol (1 nM) for 12 h; with or without paroxetine
[13] = biological target: CXCR4 S353-355A, Flag-tagged, C-terminally fused via a TEV protease cleavage site to tTA (mouse) (UniProt P70658); test: as above
[14] = biological target: CXCR4, endogenous, mouse primary B cells (mouse (endogenous in primary B cells)) (UniProt P70658); test: co-IP; endogenous proteins in mouse primary B cells stimulated with CXCL12 (600 ng/ml); digitonin lysis buffer

With “COMMD3 with a Myc or HA tag (mouse) (from UniProt Q63829 1-195)” the binding [1] was “binds”.

For “COMMD3, endogenous, mouse (from UniProt Q63829 1-195)”, the binding [2] was “binds”.

“HA-tagged GRK2 (mouse) (from UniProt Q99MK8 1-689) (enzyme)” was tested, and the binding [3] was “no binding” and the binding [4] was “no binding”.

With “HA-tagged GRK6 (mouse) (from UniProt O70293 1-576) (enzyme)” the binding [3] was “binds” and the binding [4] was “binds”.

“β-arrestin-2, endogenous, 2PK-3 cells (from UniProt Q91YI4 1-410)” was tested, and the binding [5] was “binds” and the binding [6] was “binds”.

B1: Myc-tagged COMMD8 (mouse) (protein, UniProt Q9CZG3 1-183)
chain: MEPEEGTPLWRLQKLPPEQGAGLLHKIIDGFCGRAYPAHQDYHSVWNSAEWKHVLEDVTTFFKAVVGKNFSEEETLQQLNQLNSCHQEAVLKCLKSRRNEIKQALLGEIVDISCAQLQDFDWQLKLALSSDKIATLQMPLLNLHLDVKEDDKVKPYTVEMSKEELQSLISSLEAANKVVLQLK
B1 was tested, and the binding [7] was “binds weakly”, the binding [8] was “binds” and the binding [9] was “binds”. The binding [10] was “binds” and the binding [11] was “binds”.

B2: Myc-tagged COMMD8 C-terminally fused to TEV protease (protein, UniProt Q9CZG3 1-183)
chain: MEPEEGTPLWRLQKLPPEQGAGLLHKIIDGFCGRAYPAHQDYHSVWNSAEWKHVLEDVTTFFKAVVGKNFSEEETLQQLNQLNSCHQEAVLKCLKSRRNEIKQALLGEIVDISCAQLQDFDWQLKLALSSDKIATLQMPLLNLHLDVKEDDKVKPYTVEMSKEELQSLISSLEAANKVVLQLK
For B2, the binding [12] was “binds” and the binding [13] was “no binding”.

B3: COMMD8, endogenous, mouse (protein, UniProt Q9CZG3 1-183)
chain: MEPEEGTPLWRLQKLPPEQGAGLLHKIIDGFCGRAYPAHQDYHSVWNSAEWKHVLEDVTTFFKAVVGKNFSEEETLQQLNQLNSCHQEAVLKCLKSRRNEIKQALLGEIVDISCAQLQDFDWQLKLALSSDKIATLQMPLLNLHLDVKEDDKVKPYTVEMSKEELQSLISSLEAANKVVLQLK
B3 was tested, and the binding [14] was “binds”.

— publication PMC6605747
